Data as given in PubChem BioAssay AID445 (National Center for Advancing Translational Sciences (NCATS), 2006).
Out of some 110,000 compounds screened, about 40 (0.04%) were called active. The inconclusive results got no clear call from the source; some entries with a clear call stand among them for comparison. The call rests on the fitted dose curve; in most records, active means well fitted curve in the direction sought with a large enough effect in the signal ratio (not every such curve was filed as active); inconclusive means small, poorly fitted or top-dose-only effect, or a change in a side signal; inactive means flat fitted curve, though single readings scatter; the % refers to the signal ratio. Potencies beside an inconclusive call are fits to weak or partial responses and may not hold up.

Assay: IkB Signaling;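 on IkBa stabilization activation: 0% = basal untreated cells and 100% = reference inhibitor full response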
Conditions: ABC-DLBCL IkBa-CBG/CBR dual luciferase ratio (green luciferase fused to IkBa over red control in OCI-Ly3 lymphoma cells), 4 h; IkBa stabilization activation: at 57.1 µM (top of the series), scaled: untreated 0%, proteasome inhibitor 100% unless noted
In short: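 Curves were fitted separately to fusion (green), unfused (red) and ratio luminescence, then classed by r2, magnitude and activity. Cells: OCI-Ly3, 4 h compound plus doxycycline at 37C; 10 uM MG-132 defined full response.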
Potency means the concentration at half of the fitted maximal effect.

**Q.** With `Cc1ccc(-n2nc(C)c3cc(C(=O)O)sc32)cc1` as the compound, how does the Potency read?
**A.** inconclusive: 25.1 µM [signal inhibitor, partial curve]

**Q.** With `CCCCN(C)CCCNC(=O)Cn1ncc2c3ccccc3n(Cc3cc(C)ccc3C)c2c1=O` as the compound, how does the “IkBa stabilization activation” value read?
**A.** inactive: 0.301%

**Q.** With `CCN(CC)CCCNC(=O)c1nn(-c2ccc(C)cc2)c(=O)c2c1c1ccccc1n2C` as the compound, how does the “IkBa stabilization activation” value read?
**A.** inactive: -0.752%

**Q.** With `COc1ccc(CCN2C(=O)c3[nH]nc(-c4ccccc4O)c3C2c2ccccc2)cc1OC` (centres undefined) as the compound, how does the Potency read?
**A.** inconclusive: 39.8 µM [signal inhibitor, single point]

**Q.** With `COc1ccccc1CNC(=O)c1cc2c(s1)-c1ccccc1OC2` as the compound, how does the IkBa stabilization activation read?
**A.** inconclusive: 6.14% [signal inhibitor]

**Q.** Which Potency does the source give for `CCC(=O)N1c2ccc(S(=O)(=O)CCC(=O)Nc3ccc(Br)c(C)c3)cc2CC1C` (centres undefined) here?
**A.** inconclusive: 10 µM [signal inhibitor]

**Q.** With `CCOCCCN(Cc1ccco1)C(=O)c1cc2c(=O)[nH]c3ccc(C)cc3c2s1` as the compound, how does the IkBa stabilization activation read?
**A.** inconclusive: 1.51% [signal inhibitor]

**Q.** Which IkBa stabilization activation does the source give for `COc1ccc(/C=C(\C#N)c2nc3ccccc3n2C)c(OC)c1` here?
**A.** inconclusive: 9.98% [signal inhibitor]

**Q.** Which Potency does the source give for `COc1cccc(NC(=O)c2cnc(SCC(=O)N3CCOCC3)n(C)c2=O)c1` here?
**A.** inconclusive: 31.6 µM [signal activator, single point]

**Q.** With `Cc1ccc(Cl)cc1N1CCN(C(=O)CN2C(=O)CSc3c2c(C)nn3-c2ccccc2)CC1` as the compound, how does the IkBa stabilization activation read?
**A.** inconclusive: 4.02% [signal inhibitor]

**Q.** With `COc1ccc2c(c1)CCc1c(C(=O)N3CCCC3)noc1-2` as the compound, how does the IkBa stabilization activation read?
**A.** inconclusive: 1.19% [signal inhibitor]

**Q.** Which IkBa stabilization activation does the source give for `CCOc1ccc(N(CC)S(=O)(=O)N2CCCC(C(=O)NCCc3ccc(OC)cc3)C2)cc1` (centres undefined) here?
**A.** inconclusive: 0.928% [signal inhibitor]

**Q.** For `Cc1ccc(C)c(N2CCN(C(=O)c3cc(S(=O)(=O)N4CCCCCC4)cn3C)CC2)c1`, which IkBa stabilization activation is on record?
**A.** inconclusive: 3.27% [signal inhibitor]

**Q.** With `Cc1ccc(S(=O)(=O)NCC2CCC(C(=O)NCCc3ccc(Cl)cc3)CC2)cc1` (centres undefined) as the compound, how does the “IkBa stabilization activation” value read?
**A.** inactive: -1.24%

**Q.** With `COc1ccc(C2N(c3cc(Cl)ccc3OC)C(=O)C3CCCN32)cc1` (centres undefined) as the compound, how does the Potency read?
**A.** inconclusive: 20 µM [signal inhibitor, partial curve]

**Q.** Which “IkBa stabilization activation” value does the source give for `CCCn1c(CCCNC(=O)c2ccccc2OC)nc2ccccc21` here?
**A.** inactive: 2.65%

**Q.** For `COc1ccc(NC(=O)c2cc3ccccc3o2)cc1`, which Potency is on record?
**A.** inconclusive: 25.1 µM [signal inhibitor, partial curve]

**Q.** With `Cc1cc(C)c2c(n1)sc1c(=O)n(-c3cc(Cl)ccc3C)nnc12` as the compound, how does the IkBa stabilization activation read?
**A.** inconclusive: 7.98% [signal inhibitor]

**Q.** Which IkBa stabilization activation does the source give for `CC(=O)CCCCn1c(=O)c2c(ncn2C)n(C)c1=O` here?
**A.** inactive

**Q.** Which IkBa stabilization activation does the source give for `CCC1CCCCN1C(=O)Cn1c(=O)cc(C(F)(F)F)c2c(C)nn(C)c21` (centres undefined) here?
**A.** inconclusive: 0.496% [signal inhibitor]

**Q.** With `Cc1ccc2cc(CN(Cc3ccc4c(c3)OCO4)Cc3nnnn3Cc3ccco3)c(=O)[nH]c2c1C` as the compound, how does the IkBa stabilization activation read?
**A.** inconclusive: 2.36% [signal inhibitor]

**Q.** With `Cc1ccc(N(C(=O)Cn2nnc(-c3ccc(C)o3)n2)C(C(=O)NC2CCCC2)c2ccco2)cc1` (centres undefined) as the compound, how does the “IkBa stabilization activation” value read?
**A.** inactive: -0.585%

**Q.** Which IkBa stabilization activation does the source give for `O=C1c2[nH]nc(-c3ccccc3O)c2C(c2ccc(F)cc2)N1CCO` (centres undefined) here?
**A.** inconclusive: 2.05% [signal inhibitor]

**Q.** Which IkBa stabilization activation does the source give for `COc1ccc(OC)c(NC(=O)Cc2c(C(=O)O)n(C)c3ccc(C)cc23)c1` here?
**A.** inconclusive: 5.66% [signal inhibitor]

**Q.** With `COc1ccc2nc(-c3ccccc3)[nH]c2c1` as the compound, how does the IkBa stabilization activation read?
**A.** inconclusive: 14.4% [signal inhibitor]

**Q.** Which “IkBa stabilization activation” value does the source give for `COc1cc2c(N3CCOCC3)cc(O)c(CC(=O)Nc3ccccc3)c2cc1OC` here?
**A.** inactive: 1.62%

**Q.** For `COc1ccc(-c2nc(SCC(=O)N3CCCCC3C)n[nH]2)cc1` (centres undefined), which IkBa stabilization activation is on record?
**A.** inconclusive: -0.189% [signal inhibitor]

**Q.** Which IkBa stabilization activation does the source give for `CCc1cccc(C)c1Nc1c(-c2cccc(O)c2)nc2nc(C)cc(C)n12` here?
**A.** inconclusive: 3.28% [signal inhibitor]

**Q.** With `Cc1ccc(CN(Cc2ccco2)C(=O)c2ccc(Cl)cc2)o1` as the compound, how does the “IkBa stabilization activation” value read?
**A.** inactive: -0.411%

**Q.** With `O=C(NCCCc1nc2ccccc2n1Cc1ccc(Cl)cc1Cl)c1ccco1` as the compound, how does the IkBa stabilization activation read?
**A.** inconclusive: -0.553% [signal inhibitor]

**Q.** For `COc1ccc(N2C(=O)CC(Sc3ncn[nH]3)C2=O)c(OC)c1` (centres undefined), which IkBa stabilization activation is on record?
**A.** inconclusive: -4.3% [signal inhibitor]

**Q.** With `CCc1ccccc1Nc1ccc(C(=O)O)cc1N` as the compound, how does the IkBa stabilization activation read?
**A.** inconclusive: 3.14% [signal inhibitor]

**Q.** With `O=S(=O)(c1cccc(F)c1)N1CCC(Oc2ccc(-n3cnnn3)cc2)CC1` as the compound, how does the IkBa stabilization activation read?
**A.** inconclusive: 2.45% [signal inhibitor]

**Q.** With `CCc1ccc(S(=O)(=O)c2c(C(=O)c3ccccc3)cnc3ccc(CC)cc23)cc1` as the compound, how does the IkBa stabilization activation read?
**A.** inconclusive: 2.6% [signal inhibitor]

**Q.** With `Cn1cccc1C(=O)N1CCC2(CC1)CCN(c1ccncc1)CC2` as the compound, how does the IkBa stabilization activation read?
**A.** inactive: 1.43% [at 11.4 µM, scaled: untreated 0%, proteasome inhibitor 100%]

**Q.** With `COc1ccccc1CN1CCC(CNC(=O)c2cnn(-c3ccc(Cl)cc3)c2C2CCN(C(=O)OC(C)(C)C)CC2)CC1` as the compound, how does the IkBa stabilization activation read?
**A.** inconclusive: -1.95% [signal inhibitor]

**Q.** Which IkBa stabilization activation does the source give for `CC(C)c1ccc(OCC(O)CN2CCN(c3ccc(F)cc3)CC2)cc1` (centres undefined) here?
**A.** inconclusive: 6.48% [signal inhibitor]

**Q.** Which IkBa stabilization activation does the source give for `Cc1ccccc1NC(=O)c1ccc(Cl)c(S(=O)(=O)N2CCCCCC2)c1` here?
**A.** inconclusive: 12.7% [signal inhibitor]

**Q.** With `CCSc1nnc(NC(=O)c2ccc(C)o2)s1` as the compound, how does the Potency read?
**A.** inconclusive: 15.8 µM [signal inhibitor, partial curve]

**Q.** With `CCc1ccccc1NC(=O)c1cc(-c2ccc3c(c2)OCO3)on1` as the compound, how does the Potency read?
**A.** inconclusive: 20 µM [signal inhibitor, partial curve]

**Q.** For `Cc1ccc(C)c(-c2nc3ccc(N)cc3[nH]2)c1`, which IkBa stabilization activation is on record?
**A.** inconclusive: 11.6% [signal inhibitor]

**Q.** With `O=c1c(-c2ccc(O)cc2)coc2cc(O)ccc12` as the compound, how does the IkBa stabilization activation read?
**A.** inactive

**Q.** For `Cc1ccc(O)c(C2=Nc3ccccc3N=C(c3cccc(F)c3)C2)c1`, which IkBa stabilization activation is on record?
**A.** inconclusive: 1.97% [signal inhibitor]

**Q.** For `O=C(Nc1ccc(C(=O)N2CCN(c3ccc(Cl)cc3)CC2)cc1)c1nsc2ccccc12`, which Potency is on record?
**A.** inconclusive: 1.58 µM [signal inhibitor, partial curve]

**Q.** Which IkBa stabilization activation does the source give for `CCOC(=O)NCCc1c(C)nc2c(c(C)nn2C(C)(C)C)c1C` here?
**A.** inconclusive: -0.161% [signal inhibitor]

**Q.** With `Fc1ccc(Nc2nc(Nc3ccc(F)cc3)nc(N3CCOCC3)n2)cc1` as the compound, how does the IkBa stabilization activation read?
**A.** inconclusive: 6.84% [signal inhibitor]

**Q.** With `COc1ccc(C2C(CC(=O)O)=C(O)C(=O)N2c2ccccc2)cc1` (centres undefined) as the compound, how does the IkBa stabilization activation read?
**A.** inconclusive: 14.7% [signal inhibitor]

**Q.** With `O=C(NC1CCCCCCC1)c1ccc2c(c1)OCO2` as the compound, how does the “IkBa stabilization activation” value read?
**A.** inactive: 8.12%

**Q.** With `O=C(CSc1nnc(-c2ccc(Br)cc2)n1-c1ccccc1)c1ccccc1` as the compound, how does the IkBa stabilization activation read?
**A.** inconclusive: -0.128% [signal inhibitor]

**Q.** Which Potency does the source give for `CCOC(=O)C1CCN(C(=O)COc2cc(C)c(Br)c(C)c2)CC1` here?
**A.** inconclusive: 10 µM [signal inhibitor, partial curve]

**Q.** For `O=C(O)[C@@H](O)[C@@H](O)[C@@H](O)[C@@H](O)C(=O)O` (tested in a mixture with another compound), which “IkBa stabilization activation” value is on record?
**A.** inactive: -0.469% [at 25.6 µM, scaled: untreated 0%, proteasome inhibitor 100%]

**Q.** For `COc1ccc(NC(=O)C(=O)NCC2(c3ccccc3)CCCC2)c(OC)c1`, which IkBa stabilization activation is on record?
**A.** inconclusive: 1.38% [signal inhibitor]

**Q.** For `COc1ccc(C(=O)NCC(c2ccc3c(c2)OCO3)N2CCN(c3ccc(F)cc3)CC2)cc1` (centres undefined), which “IkBa stabilization activation” value is on record?
**A.** inactive: -3.78%

**Q.** Which IkBa stabilization activation does the source give for `COc1cccc(-c2cc(NCc3ccccc3)ncn2)c1` here?
**A.** inactive: 0.804% [at 11.4 µM, scaled: untreated 0%, proteasome inhibitor 100%]

**Q.** Which IkBa stabilization activation does the source give for `CC(=O)N1CCc2cc(Br)cc(S(=O)(=O)CCC(=O)Nc3ccc(C)cc3Cl)c21` here?
**A.** inconclusive: 15.8% [signal inhibitor]

**Q.** Which “IkBa stabilization activation” value does the source give for `CCc1c(C)c2ccc(O)c(CN3CCN(c4ccccc4)CC3)c2oc1=O` here?
**A.** inactive: -2.88%

**Q.** With `CCOC(=O)c1c(NC(=O)COc2ccc(Cl)cc2C)sc(C(C)=O)c1C` as the compound, how does the “IkBa stabilization activation” value read?
**A.** inactive: -0.985%

**Q.** For `CCN1CCN(c2cc(C)c3cc(NC(=O)c4ccccc4F)ccc3n2)CC1`, which IkBa stabilization activation is on record?
**A.** inconclusive: -1.09% [signal inhibitor]

**Q.** For `O=C1CC(c2ccccc2)CN1C(=O)c1ccccc1` (centres undefined), which “IkBa stabilization activation” value is on record?
**A.** inactive: -1.34%

**Q.** With `Cn1c(-c2ccccc2)cnc1SCc1nc2ccccc2c(=O)[nH]1` as the compound, how does the “IkBa stabilization activation” value read?
**A.** inactive: 0.793%

**Q.** Which IkBa stabilization activation does the source give for `CC(C)c1ccc2oc(=O)cc(CN3CCN(c4ccc(F)cc4)CC3)c2c1` here?
**A.** inconclusive: 5.56% [signal inhibitor]

**Q.** For `COc1cc(C(=O)Nc2nnc(C)s2)cc(OC)c1OC`, which “IkBa stabilization activation” value is on record?
**A.** inactive: 7.35%

**Q.** For `Cc1nn(Cc2ccccc2Cl)c(C)c1C(=O)N1CCN(c2ccccc2)CC1`, which IkBa stabilization activation is on record?
**A.** inconclusive: 2.44% [signal inhibitor]

**Q.** With `O=C(c1ccc(CS(=O)(=O)c2c(Cl)cccc2Cl)o1)N1CCN(c2ccccc2)CC1` as the compound, how does the IkBa stabilization activation read?
**A.** inconclusive: 0.000381% [signal inhibitor]

**Q.** With `Cc1ccc(Nc2nc(N3CCOCC3)c3ccccc3n2)cc1` as the compound, how does the IkBa stabilization activation read?
**A.** inconclusive: 0.837% [signal inhibitor]

**Q.** With `COC(=O)c1sc(NC(=O)c2ccoc2C)nc1C` as the compound, how does the IkBa stabilization activation read?
**A.** inconclusive: 10.6% [signal inhibitor]

**Q.** For `Cc1ccc(Cl)cc1N1CCN(c2ncnc3onc(-c4ccc(F)cc4)c23)CC1`, which IkBa stabilization activation is on record?
**A.** inconclusive: 0.0107% [signal inhibitor]

**Q.** With `CCOC(=O)N1CCN(C(=O)CN(c2cc(C)ccc2OC)S(=O)(=O)c2ccc(C)cc2)CC1` as the compound, how does the IkBa stabilization activation read?
**A.** inconclusive: 0.139% [signal inhibitor]

**Q.** For `Cc1ccc(-c2nnc(Nc3cccc(C(F)(F)F)c3)c3ccccc23)cc1S(=O)(=O)N1CCOCC1`, which IkBa stabilization activation is on record?
**A.** inconclusive: 3.44% [signal inhibitor]
